Experimental data: PubChem BioAssay AID720709 (National Center for Advancing Translational Sciences (NCATS), 2013)
The campaign covered roughly 360,000 compounds. About 520 (0.14%) were called active. This list was built around the results that the source calls inconclusive (neither active nor inactive); the mix of calls is not that of the screen. The call rests on the fitted dose curve; in most records, active means well fitted inhibition curve with a large enough effect; inconclusive means small, poorly fitted or top-dose-only effect; inactive means no such curve, though single readings can be large or run the other way. No potency is given beside an inconclusive call; the fits are too rough.

The compounds below were run against Rap guanine nucleotide exchange factor 3 (Homo sapiens) (UniProt O95398) (assay: qHTS for Antagonist of cAMP-regulated guanine nucleotide exchange factor 3 (EPAC1): primary screen). Settings: EPAC1 GEF assay, Rap1b-BODIPY-GDP exchange fluorescence; activity change, negative = inhibition: at 115 µM (top of the series).
Further: nearly all actives have a fitted effect of over 50% in size.
Potency means the concentration at half of the fitted maximal effect; tags describe the fitted curve by direction and shape.
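Wherever activity change, negative = inhibition is given: plate controls were vehicle for no effect and positive control for full effect.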

Chain of UniProt O95398 (O95398 whole entry, looked up): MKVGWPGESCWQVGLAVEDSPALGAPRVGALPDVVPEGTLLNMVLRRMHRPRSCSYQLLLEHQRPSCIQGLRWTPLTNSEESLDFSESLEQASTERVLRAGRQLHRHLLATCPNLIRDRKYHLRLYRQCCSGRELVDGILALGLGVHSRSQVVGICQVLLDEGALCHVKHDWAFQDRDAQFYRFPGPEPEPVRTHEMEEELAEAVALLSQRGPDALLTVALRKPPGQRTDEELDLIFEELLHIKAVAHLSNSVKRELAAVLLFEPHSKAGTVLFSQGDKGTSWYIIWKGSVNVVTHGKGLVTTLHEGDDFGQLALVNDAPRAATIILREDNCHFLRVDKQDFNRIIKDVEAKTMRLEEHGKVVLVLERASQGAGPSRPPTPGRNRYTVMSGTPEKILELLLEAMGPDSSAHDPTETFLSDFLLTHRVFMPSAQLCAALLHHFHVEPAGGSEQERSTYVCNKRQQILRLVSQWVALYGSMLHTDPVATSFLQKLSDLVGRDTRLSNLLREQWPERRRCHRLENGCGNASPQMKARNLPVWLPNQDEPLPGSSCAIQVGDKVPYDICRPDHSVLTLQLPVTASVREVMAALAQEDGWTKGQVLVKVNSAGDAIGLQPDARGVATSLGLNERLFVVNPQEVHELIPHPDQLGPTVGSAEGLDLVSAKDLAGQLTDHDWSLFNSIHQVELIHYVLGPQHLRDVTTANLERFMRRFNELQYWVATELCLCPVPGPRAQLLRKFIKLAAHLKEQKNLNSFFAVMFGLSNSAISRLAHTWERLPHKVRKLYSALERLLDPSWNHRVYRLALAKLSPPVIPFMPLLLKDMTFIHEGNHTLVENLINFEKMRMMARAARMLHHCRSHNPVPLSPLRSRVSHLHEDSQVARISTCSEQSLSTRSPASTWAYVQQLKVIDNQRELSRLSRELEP

Row | Structure (SMILES) | Potency | activity change, negative = inhibition
1 | O=c1c2c(-c3ccccc3)csc2nc2c3ccccc3c(NCCN3CCOCC3)nn12 | inconclusive [inhibitor, partial curve] | 
2 | COc1ccc2cc(C(=O)N/N=C/c3sc4ccccc4c3O)ccc2c1 |  | inactive: 35.4%
3 | CCN1C(=O)/C(=C/c2ccc(OCc3ccc(C(=O)O)cc3)c(Cl)c2)NC1=S | active: 89.1 µM | 
4 | Cc1ccc(OCc2nnc(-c3ccc(Cl)cc3)o2)cc1 |  | inconclusive: -17.1% [inhibitor]
5 | Cc1ccc2c(c1)C(=O)C(=O)N2c1ccc(C(F)(F)F)cc1 | inconclusive [inhibitor, partial curve] | 
6 | Cc1ccc([C@@H]2CC=C(C(=O)O)[C@H](c3ccc(Cl)cc3)N2S(=O)(=O)c2ccc(C)cc2)cc1 | inconclusive [inhibitor, single point] | 
7 | CCOc1ccc2nc(N(CCCN(C)C)C(=O)c3ccc(C(=O)c4ccccc4)cc3)sc2c1 | inconclusive [inhibitor, full curve, poor fit] | 
8 | O=[N+]([O-])c1ccc(COc2ccc(CN3CCCCC3)cc2)cc1 | inconclusive [inhibitor, single point] | 
9 | Cc1ccc(N(C)S(=O)(=O)c2cccc(C(=O)OCC(=O)c3c(N)n(C)c(=O)n(C)c3=O)c2)cc1 | inconclusive [inhibitor, full curve] | 
10 | O=C(C(=O)N1CCN(c2ccccc2)CC1)c1ccc2c(c1)OCO2 |  | inactive: 1.25%
11 | CC1(C(=O)Nc2cccc(OC(F)(F)F)c2)Cc2c(-c3cccc(C(F)(F)F)c3)ccnc2O1 (centres undefined) | inconclusive [inhibitor, partial curve] | 
12 | CCCCON1C(=O)c2cccc3cccc(c23)C1=O |  | inactive: 3.48%
13 | Cc1ccc(/C=N/NC(=O)c2nnn(-c3nonc3N)c2CN(C)C2CCCCC2)cc1 | inconclusive [inhibitor, single point] | 
14 | O=C(CS(=O)(=O)c1ccc(F)cc1)N1CCOCC1 |  | inactive: -0.592%
15 | C=CCNC(=S)NNC(=O)COc1ccc2cc(Br)ccc2c1 |  | inactive: -38%
16 | CCCCNC(=O)CSc1nc2ccc(Nc3nc(N4CCOCC4)nc(N4CCOCC4)n3)cc2s1 | inconclusive [inhibitor, full curve, poor fit] | 
17 | O=C(C(Cc1ccccc1)N1C(=O)c2ccccc2C1=O)N1CCc2ccccc21 (centres undefined) | inconclusive [inhibitor, partial curve, poor fit] | 
18 | Cc1ccc(NC(=O)COC(=O)[C@@H]2CCCN2C(=O)c2cccs2)cc1S(=O)(=O)N(C)C | inconclusive [inhibitor, full curve, poor fit] | 
19 | CCc1nnc(NC(=O)Cc2cc(OC)c(OC)c(OC)c2)s1 |  | inactive: -0.438%
20 | Oc1ccc(N=Nc2nc(-c3ccccc3)c(-c3ccccc3)[nH]2)cc1 | inconclusive [inhibitor, single point] | 
21 | CC(C)(C)NC(=O)c1ccc(COc2ccc(Cl)cc2Cl)o1 |  | inconclusive: -17% [inhibitor]
22 | CCOC(=O)N1CCN(C(=O)CNC(=O)Cn2cnc3ccccc3c2=O)CC1 | inconclusive [inhibitor, full curve, poor fit] | 

Row | Structure (SMILES) | Potency | activity change, negative = inhibition
23 | O=[N+]([O-])c1ccc(Sc2nc3ccccc3o2)c([N+](=O)[O-])c1 |  | inactive: -21.3%
24 | COc1ccc(C2(C)NC(=O)N(CC(=O)NCc3ccccc3F)C2=O)cc1 (centres undefined) | inconclusive [inhibitor, partial curve] | 
25 | O=C(CSc1nc2nn(-c3ccccc3)c(=O)c-2c2n1CCCCC2)c1ccc(O)c(O)c1 | inconclusive [inhibitor, full curve] | 
26 | COc1ccc(CCNC(=S)NC(=O)c2cccc([N+](=O)[O-])c2)cc1OC |  | inactive: -14.4%
27 | CN(CCc1ccccc1)C(=O)c1ccc(NC(=O)Cc2ccc(NC(=O)C3CCN(C(=O)C4CCCC4)CC3)cc2)cc1 |  | inactive: -17.6%
28 | O=C1/C(=C/c2ccccc2)CCc2ccc(Cl)nc21 | inconclusive [inhibitor, partial curve] | 
29 | Cc1ccc(S(=O)(=O)N(CCCO)CC(O)CON=C2c3ccccc3-c3ccccc32)cc1 (centres undefined) | inconclusive [inhibitor, single point] | 
30 | Cc1occc1-c1nnc(SCC(=O)c2cc3ccccc3oc2=O)o1 | inconclusive [inhibitor, single point] | 
31 | CC(C)=CC(=O)Nc1nc2ccc([N+](=O)[O-])cc2s1 | inconclusive [inhibitor, single point] | 
32 | Cc1cccc(NC(=O)CN2C(=O)N/C(=C/c3cc(C)n(-c4cccnc4)c3C)C2=O)c1 | inconclusive [inhibitor, full curve, poor fit] | 
33 | C=CCNC(=O)C(C#N)c1nc2ccccc2nc1N1CCN(Cc2ccccc2)CC1 (centres undefined) |  | inactive: 19.1%
34 | Cc1ccccc1C(=O)NC(=S)Nc1ccc(S(=O)(=O)N2CCOCC2)cc1 | inconclusive [inhibitor, partial curve, poor fit] | 
35 | O=C(N/N=C/c1cccc(NC(=O)c2ccc(Cl)cc2)c1)c1cccc(O)c1 | inconclusive [inhibitor, partial curve, poor fit] | 
36 | O=C1NCCN(Cc2cccc(Oc3ccccc3)c2)C1CC(=O)N1CCCCC1 (centres undefined) |  | inactive: 8.57%
37 | CC(NC(=O)C1CCN(S(=O)(=O)c2ccc(Br)s2)CC1)c1ccccc1 (centres undefined) |  | inactive: 5.83%
38 | C/C(=N\OCC(=O)OCC(=O)NC(=O)c1ccc(OC(F)F)cc1)c1ccc2c(c1)OCO2 | inconclusive [inhibitor, full curve, poor fit] | 
39 | COc1ccc(C2=CC3=C(Br)C(=O)C(C)(OC(=O)c4cccs4)C(=O)C3=CO2)cc1 (centres undefined) | inconclusive [inhibitor, full curve] | 
40 | CCc1nnc(NC(=O)c2nc(S(=O)(=O)Cc3ccccc3)ncc2Cl)s1 | inconclusive [inhibitor, partial curve] | 
41 | Cc1cccc(Nc2ccccc2C(=O)OCC(=O)N2CCOCC2)c1C | inconclusive [inhibitor, partial curve] | 
42 | COc1cccc(NC(=O)CSc2nc3c(sc4ccccc43)c(=O)n2CCN(C)C)c1 | inconclusive [inhibitor, partial curve] | 
43 | CCc1ccc(CNC(=O)Cc2ccc(NC(=O)C3=C(C)OCCS3)cc2)cc1 | inconclusive [inhibitor, partial curve] | 
44 | O=C(C1=NN(c2ccccc2)C2C(=O)N(c3ccc(Cl)cc3)C(=O)C12)c1ccccc1 (centres undefined) |  | inactive: 17%

Row | Structure (SMILES) | Potency | activity change, negative = inhibition
45 | Cc1noc(NS(=O)(=O)c2ccc(N/C=C\C(=O)c3ccc(Br)cc3)cc2)c1C | inconclusive [inhibitor, single point] | 
46 | CC(OC(=O)c1ccc(Br)o1)C(=O)NCC1CCCCC1 (centres undefined) |  | inactive: -6.49%
47 | CS(=O)(=O)c1sc(C#N)c2c1C(=O)CC(c1ccccc1)C2 (centres undefined) | inconclusive [inhibitor, partial curve] | 
48 | COc1ccccc1NC(=S)N(CCCN1CCOCC1)Cc1cn(C)c2ccccc12 | inconclusive [inhibitor, partial curve] | 
49 | Cc1ccc(NC2=CC(=O)C(=O)c3ccccc32)cc1 |  | inactive: -22.1%
50 | O=C(CCCC(=O)N1CCN(c2ccccc2F)CC1)c1ccccc1 | inconclusive [inhibitor, single point] | 
51 | Cc1ccc(S(=O)(=O)N2CCN(C(=O)COC(=O)/C=C/c3ccc(OC(F)F)cc3)CC2)cc1 | inconclusive [inhibitor, partial curve] | 
52 | Cc1nc2cc3nc(C(F)(F)F)[nH]c3cc2[nH]1 |  | inactive: 9.91%
53 | CC1(c2nnc(-c3ccc(F)cc3)o2)CC(c2c(Cl)cccc2Cl)=NO1 (centres undefined) | inconclusive [inhibitor, full curve, poor fit] | 
54 | COc1ccc(-c2[nH]ncc2/C=N\NC(=O)c2ccc(C(C)(C)C)cc2)cc1OC | inconclusive [inhibitor, single point] | 
55 | COc1ccc(CCNc2ccc(N3C(=O)CC(C)C3=O)cc2[N+](=O)[O-])cc1 (centres undefined) | inconclusive [inhibitor, single point] | 
56 | O=C(Nc1ccccc1)c1ccc(S(=O)(=O)NCc2ccco2)cc1 |  | inactive: -3.78%
57 | CS(=O)(=O)c1ccc2nc(NC(=O)Oc3ccccc3)sc2c1 | inconclusive [inhibitor, partial curve] | 
58 | CC(C)(C)c1cc(NCCCn2ccnc2)n2ncc(-c3ccccc3)c2n1 | inconclusive [inhibitor, single point] | 
59 | Cc1ccc(OCCC(=O)Nc2ccc(F)c(Cl)c2)cc1 | inconclusive [inhibitor, single point] | 
60 | O=C(Nc1ccc(Oc2ccccc2)nc1)C1CCCCN1Cc1cccc(OCCO)c1 (centres undefined) | inconclusive [inhibitor, partial curve, poor fit] | 
61 | COc1ccc(NC(=O)c2ccccc2NS(=O)(=O)c2ccc(CNC(C)=O)cc2)c(OC)c1 | inconclusive [inhibitor, partial curve, poor fit] | 
62 | Cc1cc(C)cc(NC(=O)Cn2nnc(C(=O)NCc3ccco3)c2N)c1 | inconclusive [inhibitor, single point] | 
63 | COc1cc(OC)cc(-c2noc(-c3csc([C@@H]4O[C@H](CO)[C@H](O)[C@H](O)[C@H]4O)n3)n2)c1 |  | inactive: 7.53%
64 | CC(C)C[C@H]1CN(CCCC[C@@H]2CNC(=O)C(=O)N2CC2CCCCC2)C(=O)C(=O)N1CC1CCCCC1 |  | inactive: -8.46%
